The supplement of paper PMC7826260
This is one part of the list. One pool of 16,384 single-stranded DNAs met each Rep nickase domain in vitro for 1 h at 37 °C with 3 µM enzyme; only the middle of the 90-letter strands is printed. The score is log2 (uncut reads / reads without enzyme); the lower, the more was cut; hits are not called. Because reads are shares of a total, they shift together; uncut strands gain when others are lost, and binding without cutting may add a little.

Columns and labels:
Test in all cases: uncleaved DNA left, log2 of reads against the no-enzyme library (log2 ratio); higher = less cleavage (more negative = more Rep cleavage of the k-mer); sequences stand for … in CTCGTCCG…ACCGGAGA
[1] = test system: T1, Rep nickase domain of Muscovy duck circovirus
T1 sequence (Rep 1-111, printed without the tag): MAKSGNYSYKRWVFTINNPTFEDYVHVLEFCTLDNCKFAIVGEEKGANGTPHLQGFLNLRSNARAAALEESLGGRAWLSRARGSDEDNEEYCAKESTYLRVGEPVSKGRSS
Experimental: (§1)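 A pool of 90-nt single-stranded DNAs with seven random bases just before the constant AC of the nick site (name = the seven bases) was cut by 3 µM recombinant His6-SUMO-tagged Rep nickase domain (300 nM DNA, 50 mM HEPES pH 8.0, 50 mM NaCl, 1 mM MnCl2, 1 h, 37 °C, three replicates). Uncut DNA was amplified and sequenced.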

[2] = test system: T2, Rep nickase domain of banana bunchy top virus
T2 sequence (Rep 1-94, printed without the tag): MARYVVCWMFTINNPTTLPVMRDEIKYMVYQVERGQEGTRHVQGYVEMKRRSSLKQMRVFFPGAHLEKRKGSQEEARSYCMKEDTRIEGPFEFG
Experimental: as §1

[3] = test system: T3, Rep nickase domain of cabbage leaf curl virus
T3 sequence (Rep 1-116, printed without the tag): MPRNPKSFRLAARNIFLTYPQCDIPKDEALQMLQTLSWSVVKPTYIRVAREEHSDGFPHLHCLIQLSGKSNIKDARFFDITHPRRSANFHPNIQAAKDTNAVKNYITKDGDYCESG
Experimental: as §1

[4] = test system: T4, Rep nickase domain of chickpea chlorotic dwarf virus
T4 sequence (Rep 1-124, printed without the tag): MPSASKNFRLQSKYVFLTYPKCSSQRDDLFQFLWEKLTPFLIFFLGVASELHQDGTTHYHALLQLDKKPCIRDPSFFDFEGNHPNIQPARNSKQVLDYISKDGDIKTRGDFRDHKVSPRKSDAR
Experimental: as §1

[5] = test system: T5, Rep nickase domain of faba bean necrotic yellows virus
T5 sequence (Rep 1-98, printed without the tag): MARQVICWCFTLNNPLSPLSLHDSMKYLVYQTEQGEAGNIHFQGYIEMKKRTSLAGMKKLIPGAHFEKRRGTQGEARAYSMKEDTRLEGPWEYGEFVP
Experimental: as §1

[6] = test system: T6, Rep nickase domain of maize striate mosaic virus
T6 sequence (Rep 1-117, printed without the tag): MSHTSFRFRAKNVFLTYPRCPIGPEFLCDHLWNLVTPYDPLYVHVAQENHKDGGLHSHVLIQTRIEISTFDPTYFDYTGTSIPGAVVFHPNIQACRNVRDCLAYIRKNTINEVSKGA
Experimental: as §1

[7] = test system: T7, Rep nickase domain of porcine circovirus 2
T7 sequence (Rep 2-116, printed without the tag): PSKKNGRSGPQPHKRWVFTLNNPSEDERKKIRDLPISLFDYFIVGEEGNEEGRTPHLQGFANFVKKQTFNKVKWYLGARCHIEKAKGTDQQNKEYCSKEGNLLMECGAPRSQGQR
Experimental: as §1

[8] = test system: T8, Rep nickase domain of tomato golden mosaic virus
T8 sequence (Rep 1-124, printed without the tag): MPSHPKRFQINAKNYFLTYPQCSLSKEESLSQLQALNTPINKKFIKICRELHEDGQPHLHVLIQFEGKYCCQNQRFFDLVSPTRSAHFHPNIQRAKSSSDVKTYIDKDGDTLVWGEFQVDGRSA
Experimental: as §1

[9] = test system: T9, Rep nickase domain of tomato yellow leaf curl virus
T9 sequence (Rep 1-136, printed without the tag): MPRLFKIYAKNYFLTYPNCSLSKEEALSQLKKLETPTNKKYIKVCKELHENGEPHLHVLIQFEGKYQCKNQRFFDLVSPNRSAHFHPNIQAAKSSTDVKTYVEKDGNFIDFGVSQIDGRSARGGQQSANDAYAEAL
Experimental: as §1

[10] = test system: T10, Rep nickase domain of wheat dwarf virus
T10 sequence (Rep 1-137, printed without the tag): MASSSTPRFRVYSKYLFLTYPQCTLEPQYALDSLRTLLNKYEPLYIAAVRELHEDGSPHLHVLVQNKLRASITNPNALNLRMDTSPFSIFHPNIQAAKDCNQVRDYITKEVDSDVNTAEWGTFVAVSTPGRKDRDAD
Experimental: as §1

Sequence | uncleaved DNA left (log2) [1] | uncleaved DNA left (log2) [2] | uncleaved DNA left (log2) [3] | uncleaved DNA left (log2) [4] | uncleaved DNA left (log2) [5] | uncleaved DNA left (log2) [6] | uncleaved DNA left (log2) [7] | uncleaved DNA left (log2) [8] | uncleaved DNA left (log2) [9] | uncleaved DNA left (log2) [10]
TACAGAG | -0.0289 | -0.00998 | -0.616 | -0.74 | 0.095 | -1.15 | 0.126 | 0.0127 | 0.0382 | -0.0653
CCCTGGT | -0.355 | -0.246 | -0.104 | -0.127 | -0.213 | -0.224 | -1.39 | 0.0847 | -0.0431 | -0.0455
CCGGGTT | -0.123 | -0.287 | 0.171 | 0.0935 | -0.145 | 1.42 | 0.102 | -0.0884 | -0.296 | -0.196
CGACTCG | -0.084 | -0.0667 | -0.305 | 0.294 | -0.0659 | 0.301 | -0.00847 | -0.131 | -0.241 | -0.0153
TGAACTT | -0.0657 | -0.0597 | 0.15 | -1.48 | -0.0321 | 0.566 | -0.272 | -0.118 | 0.067 | 0.012
GATCTGA | -0.00051 | 0.0985 | 0.108 | 0.642 | 0.00324 | 1.26 | -0.0213 | 0.0147 | -0.0223 | -0.0509
GTCTTAT | 0.0553 | 0.00467 | 0.385 | 0.776 | -0.0647 | 1.79 | -0.0189 | 0.109 | -0.0614 | 0.075
CCACGTC | -0.0395 | -0.0952 | -0.0312 | -0.319 | -0.0737 | -0.855 | -0.0716 | -0.113 | -0.0281 | -0.155
GTTGCGG | 0.0613 | -0.00609 | -0.339 | -0.428 | 0.0752 | -0.4 | 0.125 | 0.00697 | -0.0234 | -0.134
TGAAGGC | 0.0259 | -0.00755 | 0.222 | 0.254 | 0.116 | -0.356 | 0.13 | 0.0692 | 0.107 | 0.0773
ACACCGC | -0.137 | -0.0695 | -0.592 | -0.566 | -0.0511 | -0.976 | 0.122 | -0.0812 | -0.255 | -0.148
CGAAGCT | -0.0617 | -0.131 | 0.165 | 0.314 | -0.123 | 0.329 | -0.0022 | 0.00263 | -0.0262 | 0.0238
GGGCTAC | -0.00314 | 0.0744 | 0.785 | 1.79 | -0.173 | 2.17 | 0.265 | 0.143 | 0.107 | 0.0469
CGCCATG | -0.174 | -0.0769 | -0.107 | 0.0445 | -0.107 | -0.0114 | -0.0288 | -0.142 | 0.0685 | 0.108
CTGTTTA | -0.0471 | -0.158 | -0.163 | -1.26 | -0.0491 | -0.457 | -0.383 | -0.091 | -0.155 | -0.121
CAGAGTT | 0.0753 | -1.06 | -0.24 | -1.97 | -0.443 | 0.304 | -2.86 | 0.143 | -0.0725 | -0.166
GCTCTTC | -0.0589 | -0.0586 | 0.18 | 0.336 | -0.0536 | 0.164 | 0.0115 | -0.0785 | -0.0869 | -0.0294
ACTCAGC | -0.106 | 0.0236 | -0.535 | -0.448 | 0.0541 | -1.08 | 0.183 | 0.118 | 0.113 | -0.00606
TGAACTG | 0.0563 | 0.0844 | -0.00353 | 0.639 | 0.0135 | 1.53 | 0.0881 | 0.00786 | 0.00482 | 0.129
CACGGTC | -0.126 | -0.194 | -0.0541 | 0.0582 | -0.0765 | -0.44 | -0.028 | -0.0123 | -0.0912 | -0.148
GTATGAG | 0.0749 | -0.00261 | -0.562 | -0.235 | 0.172 | -0.737 | 0.131 | 0.122 | 0.198 | 0.0147
GGCTCGA | 0.157 | 0.101 | 0.346 | 0.921 | 0.0827 | 1.21 | 0.15 | 0.141 | 0.132 | 0.0551
CACCCAG | 0.132 | 0.0395 | -0.71 | -0.371 | 0.059 | -0.978 | -0.26 | 0.124 | 0.0893 | 0.0148
ACTTTAA | -0.106 | -0.0126 | -0.258 | -0.436 | 0.0487 | -0.721 | 0.118 | 0.0741 | -0.0313 | 0.0471
GGTTGCT | -0.208 | -0.0453 | -0.345 | -0.454 | -0.0107 | -0.379 | -0.951 | -0.0667 | -0.0141 | -0.122
CTCTCCC | -0.223 | -0.184 | 0.0212 | -0.206 | -0.051 | 0.302 | -0.113 | -0.215 | -0.0722 | -0.0359
CAATTGC | 0.00857 | 0.00738 | -0.889 | 0.292 | 0.0481 | -0.525 | 0.11 | -0.00555 | 0.118 | -0.0267
TAGCGCC | 0.00556 | -0.12 | -0.13 | -0.394 | -0.0907 | -0.551 | -0.0133 | -0.0611 | -0.0953 | -0.16
TCCAGGT | -0.013 | -0.114 | 0.327 | 1.27 | -0.0827 | 1.64 | 0.107 | 0.101 | -0.121 | 0.0252
